Experimental data: PubChem BioAssay AID1189 (EPA DSSTox, 2008)
Certain results were filed several times, with different values. The list is limited to them.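 The calls were made as follows: active = a tumor-causing dose value with its tumor site reported for any sex and species group of a rodent or other animal cancer study; inconclusive = only studies judged inadequate by the national testing program; inactive = tested in at least one study, none positive.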 The source may hold further records. Results that share an entry are repeated measurements across runs, samples, wells, individuals or studies. Records carry a tag for their origin. A, B and so on number the origins entry by entry. Brackets with × count equal records among those shown.

assay: DSSTox (CPDBAS) Carcinogenic Potency Database Summary SingleCellCall Results; conditions: animal chronic carcinogenicity bioassays, CPDB summary call
Excerpt: The Carcinogenic Potency Database (CPDB) is a unique and widely used international resource of the results of over 6500 chronic, long-term animal cancer tests on over 1500 chemical substances. The CPDB provides easy access to the bioassay literature, with qualitative and quantitative analyses of both positive and negative experiments that have been published over the past 50 years in the general literature and by the National Cancer Institute/National Toxicology Program. The CPDB standardizes the diverse literature of cancer bioassays that vary widely in protocol, histopathological examination and nomenclature, and in the published author's choices of what information to provide in their papers. Results are reported in the CPDB for tests in rats, mice, hamsters, dogs, and nonhuman primates, and are based on the most positive result among all experiments for each sex-species. The DSSTox CPDBAS (all species) file incorporates data from the CPDB Summary Tables for the full list of over 1500 chemical substances tested in at least one species. A summary SingleCellCall, based on experimental bioassay results of one or more species, is provided for the entire DSSTox CPDBAS file (see Source URL).
An assignment of categorical carcinogenic activity based on minimal evidence for or against activity. […] Associated TD50 values and tumor site details for the relevant species/sex experiment supporting this overall CPDBAS SingleSiteCall are provided in the full CPDBAS DSSTox file (see Comment) and the corresponding CPDBAS Species Bioassay in PubChem.

SMILES | outcome
CC(=O)O[C@]1(C(C)=O)CC[C@H]2[C@@H]3C=C(Cl)C4=CC(=O)CC[C@]4(C)[C@H]3CC[C@@]21C | inactive; active [sample A] and inactive [sample B]
S=C([S-])NCCNC(=S)[S-].[Zn+2] | inactive [sample A] and active [sample B]
C#C[C@]1(O)CC[C@H]2[C@@H]3CCC4=C(CCC(=O)C4)[C@H]3CC[C@@]21C | active [sample A] and inactive; active [sample B] and inactive [sample C]
CN(C)C(=S)SSC(=S)N(C)C | inactive; active [sample A] and inactive [sample B]
CC(=O)OC1CC(C)OC(C)O1 (stereo not drawn) | active [sample A] and inactive [sample B]
CCCCOCCOCCOCc1cc2c(cc1CCC)OCO2 | active [sample A] and inactive [sample B]
CNc1ccc(N(CCO)CCO)cc1[N+](=O)[O-] | active; inactive [sample A] and active [sample B]
Brc1c(Br)c(Br)c(Oc2c(Br)c(Br)c(Br)c(Br)c2Br)c(Br)c1Br | active [sample A] and inactive [sample B]
Cc1cccc(C)c1 | active; inactive [sample A] and inactive [sample B]
ClC1C(Cl)C(Cl)C(Cl)C(Cl)C1Cl (stereo not drawn) | active (3×) and active; inactive [separate samples]
C#C[C@]1(OC(C)=O)CC[C@H]2[C@@H]3CCC4=C[C@@H](OC(C)=O)CC[C@@H]4[C@H]3CC[C@@]21C | inactive [sample A] and inactive; active [sample B]
Oc1c(Cl)c(Cl)c(Cl)c(Cl)c1Cl | active [sample A] and active; inactive [sample B] and active; inactive [sample C]
C=CC(=C)Cl | active; inactive [sample A] and inactive [sample B]
